Assay results published in the supplement of paper PMC7125110.
± gives the standard error. Variants at the floor of the assay are shown more often than the library holds them.

B1: glmS ribozyme (parent)
chain: AUAAAAGCGCCAGAACUACAGAAAUGUAGUUGACGAGGAGGAGGUUUAUCGAAUUUUCGGCGGAUGCCUCCAAA

Tests used:
Conditions in all cases: with glucosamine-6-phosphate
glucosamine-6-phosphate [1] = variants of: B1; assay: self-cleavage kobs at 640 uM GlcN6P; higher = faster cleavage; RNA array
Outline: (§1)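 Barcoded ribozyme variants were transcribed in situ on sequenced MiSeq chips by E. coli RNA polymerase. At 37 °C, a hybridised Cy3 probe tracked them while glucosamine-6-phosphate (40 μM to 10 mM) in HEPES/KCl/Mg(OAc)2 buffer flowed in and tiles were imaged over ~14 h. Per-tile medians of signals normalised to baseline and to non-cleaving reference variants were fit to one- or two-exponential decays, giving kobs. kcat and KM came from weighted Michaelis–Menten fits across concentrations.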

glucosamine-6-phosphate [2] = variants of: B1; assay: self-cleavage kobs at 2500 uM GlcN6P; higher = faster cleavage; RNA array
Outline: as §1

glucosamine-6-phosphate [3] = variants of: B1; assay: self-cleavage kobs at 10000 uM GlcN6P; higher = faster cleavage; RNA array
Outline: as §1

glucosamine-6-phosphate [4] = variants of: B1; assay: self-cleavage kobs at 160 uM GlcN6P; higher = faster cleavage; RNA array
Outline: as §1

Row | Variant | self-cleavage kobs at 640 uM GlcN6P (glucosamine-6-phosphate [1]) | self-cleavage kobs at 2500 uM GlcN6P (glucosamine-6-phosphate [2]) | self-cleavage kobs at 10000 uM GlcN6P (glucosamine-6-phosphate [3]) | self-cleavage kobs at 160 uM GlcN6P (glucosamine-6-phosphate [4])
1 | G38U G51C C67G | < 1e-05 s⁻¹ | – | – | –
2 | G32A A39C | 6.63e-05 ± 1.2e-05 s⁻¹ | 0.000114 ± 2.1e-05 s⁻¹ | 0.000259 ± 3.2e-05 s⁻¹ | –
3 | G38C G60A | < 1e-05 s⁻¹ | – | < 1e-05 s⁻¹ | < 1e-05 s⁻¹
4 | G35A A39G G63A | < 1e-05 s⁻¹ | < 1e-05 s⁻¹ | – | –
5 | U31C C58A G60A C67U | < 1e-05 s⁻¹ | – | – | –
6 | U31G G41A G63C G66A | < 1e-05 s⁻¹ | – | < 1e-05 s⁻¹ | –
7 | G37U A42G A52U | < 1e-05 s⁻¹ | – | – | –
8 | U30G G38A C70A | < 1e-05 s⁻¹ | < 1e-05 s⁻¹ | – | –
9 | A39U C61G U69G | < 1e-05 s⁻¹ | < 1e-05 s⁻¹ | < 1e-05 s⁻¹ | –
10 | G32U U45C C61A | < 1e-05 s⁻¹ | < 1e-05 s⁻¹ | – | –
11 | U31C G41U G60U | < 1e-05 s⁻¹ | – | – | –
12 | A33U C50G G51C U55C G62U C68G | < 1e-05 s⁻¹ | – | < 1e-05 s⁻¹ | –
13 | A36G G40U G66A | < 1e-05 s⁻¹ | < 1e-05 s⁻¹ | – | –
14 | A36U G41U U46G A48U | < 1e-05 s⁻¹ | < 1e-05 s⁻¹ | < 1e-05 s⁻¹ | –
15 | G35U A42G U55A | < 1e-05 s⁻¹ | – | – | –
16 | G38U G41U A52U G66C | < 1e-05 s⁻¹ | – | – | –
17 | G32A G40A C50U G59C G63A U69A | < 1e-05 s⁻¹ | < 1e-05 s⁻¹ | – | –
18 | C34U A36G | < 1e-05 s⁻¹ | < 1e-05 s⁻¹ | – | < 1e-05 s⁻¹
19 | U31A A36C A42C C70U | < 1e-05 s⁻¹ | < 1e-05 s⁻¹ | – | –

Row | Variant | self-cleavage kobs at 640 uM GlcN6P (glucosamine-6-phosphate [1]) | self-cleavage kobs at 2500 uM GlcN6P (glucosamine-6-phosphate [2]) | self-cleavage kobs at 10000 uM GlcN6P (glucosamine-6-phosphate [3]) | self-cleavage kobs at 160 uM GlcN6P (glucosamine-6-phosphate [4])
20 | G38U C61U | < 1e-05 s⁻¹ | < 1e-05 s⁻¹ | – | –
21 | C34G U46A C67A | < 1e-05 s⁻¹ | < 1e-05 s⁻¹ | – | < 1e-05 s⁻¹
22 | G35C G41A U47A C67G | < 1e-05 s⁻¹ | – | – | –
23 | A39G G60U A64C C68A C71U | < 1e-05 s⁻¹ | – | – | –
24 | A36U G63C C67U | < 1e-05 s⁻¹ | < 1e-05 s⁻¹ | – | < 1e-05 s⁻¹
25 | C34U G43U G59A G62C C67A | < 1e-05 s⁻¹ | < 1e-05 s⁻¹ | – | –
26 | U30A G41A U49C | < 1e-05 s⁻¹ | – | – | < 1e-05 s⁻¹
27 | G38U G40U A53C C61G A64G C68A | < 1e-05 s⁻¹ | – | – | < 1e-05 s⁻¹
28 | A39C G40C A52G | < 1e-05 s⁻¹ | – | – | < 1e-05 s⁻¹
29 | G32U U49A | < 1e-05 s⁻¹ | < 1e-05 s⁻¹ | < 1e-05 s⁻¹ | –
30 | G37C A52U C71G | < 1e-05 s⁻¹ | – | – | < 1e-05 s⁻¹
31 | U31G C34A A64G | < 1e-05 s⁻¹ | < 1e-05 s⁻¹ | – | –
32 | G35U A52G G62A G63U | < 1e-05 s⁻¹ | – | – | –
33 | G35U G40U G63U C71G | < 1e-05 s⁻¹ | – | – | –
34 | G35U A36C A39U | < 1e-05 s⁻¹ | < 1e-05 s⁻¹ | < 1e-05 s⁻¹ | –
35 | G32U G35U G51A C71G | < 1e-05 s⁻¹ | < 1e-05 s⁻¹ | – | –
36 | U31G G41U U47G | 7.13e-05 ± 2e-05 s⁻¹ | – | – | –
37 | A36U G41A A42U G43U | < 1e-05 s⁻¹ | < 1e-05 s⁻¹ | – | < 1e-05 s⁻¹
38 | G32A C34G | < 1e-05 s⁻¹ | < 1e-05 s⁻¹ | < 1e-05 s⁻¹ | –

Row | Variant | self-cleavage kobs at 640 uM GlcN6P (glucosamine-6-phosphate [1]) | self-cleavage kobs at 2500 uM GlcN6P (glucosamine-6-phosphate [2]) | self-cleavage kobs at 10000 uM GlcN6P (glucosamine-6-phosphate [3]) | self-cleavage kobs at 160 uM GlcN6P (glucosamine-6-phosphate [4])
39 | G38C A39C G59A | < 1e-05 s⁻¹ | < 1e-05 s⁻¹ | – | < 1e-05 s⁻¹
40 | G38U A42U U54C A64C | < 1e-05 s⁻¹ | – | – | –
41 | U31G G37C U45G C70U | < 1e-05 s⁻¹ | < 1e-05 s⁻¹ | – | –
42 | A33G A48C A52U U54A | < 1e-05 s⁻¹ | < 1e-05 s⁻¹ | – | –
43 | A33U C58U C71U | < 1e-05 s⁻¹ | < 1e-05 s⁻¹ | – | < 1e-05 s⁻¹
44 | A39C G62A A64G | < 1e-05 s⁻¹ | < 1e-05 s⁻¹ | < 1e-05 s⁻¹ | < 1e-05 s⁻¹
45 | A39U G40A A64G | 0.000775 ± 0.00021 s⁻¹ | 0.00738 ± 0.0025 s⁻¹ | – | 0.000419 ± 0.00012 s⁻¹
46 | A39G A42C C58A A64C | < 1e-05 s⁻¹ | < 1e-05 s⁻¹ | – | –
47 | G32C G51U G66A | < 1e-05 s⁻¹ | – | – | –
48 | U31G G44A C68U | < 1e-05 s⁻¹ | – | – | –
49 | G32U A33U G35U | < 1e-05 s⁻¹ | < 1e-05 s⁻¹ | – | –
50 | G35A A42G C50A G60U | < 1e-05 s⁻¹ | – | – | –
51 | G38C G63C | < 1e-05 s⁻¹ | < 1e-05 s⁻¹ | – | < 1e-05 s⁻¹
52 | G37A G43U G51U U69G | < 1e-05 s⁻¹ | < 1e-05 s⁻¹ | – | –
53 | G35C A39C G41U | < 1e-05 s⁻¹ | < 1e-05 s⁻¹ | – | < 1e-05 s⁻¹
54 | U30A A48C C58A G60A | < 1e-05 s⁻¹ | – | – | –
55 | C34G A39U U49G | < 1e-05 s⁻¹ | – | – | –
56 | G32U C67G | 4.87e-05 ± 1.6e-05 s⁻¹ | 6.69e-05 ± 1.2e-05 s⁻¹ | 0.000107 ± 1.2e-05 s⁻¹ | –
57 | A36C U49G G51C U65C | < 1e-05 s⁻¹ | – | – | –
